Consider 34 molecules from PMC9574860, “Chemical Toolkit for PARK7: Potent, Selective, and High-Throughput” (Journal of Medicinal Chemistry, 2022).

In all, about 7,900 compounds went through this assay and about 400 (5.1%) showed an effect of 50% or more. The list shows a part of the results.

Sequence of Parkinson's disease protein 7 (PARK7/DJ1) (Q99497 whole entry, looked up, the tested form may be a part): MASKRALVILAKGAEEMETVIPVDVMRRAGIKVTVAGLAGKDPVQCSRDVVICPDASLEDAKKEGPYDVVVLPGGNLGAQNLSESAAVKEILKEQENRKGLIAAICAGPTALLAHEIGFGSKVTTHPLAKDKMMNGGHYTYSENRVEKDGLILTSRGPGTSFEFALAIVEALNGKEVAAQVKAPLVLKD

The experiment deals with Parkinson's disease protein 7 (PARK7/DJ1) (human, UniProt Q99497). The experiment in a line: primary screen, percent inhibition; read as competition with a fluorescent probe by fluorescence polarization; higher = more effect of the substance. Particulars: 100 µM. Put shortly:
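Covalent fragments at 100 μM final were incubated 2 h with 0.2 μM PARK7, then 20 nM probe JYQ-107 added for a further 2 h. Fluorescence polarization read at 480/520 nm; relative FP loss versus reference controls gave remaining enzyme activity.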
With `O=C(Oc1cccc2cccnc12)N1CCCCC1`, the Inhibition % is on record as 7.91%. Regarding `OB(O)c1ccc(OCC2CCOC2)cc1` (stereo not shown), the Inhibition % came out at 8.08%.

As for `CS(=O)(=O)OC1CCN(Cc2ccccc2)C1` (stereo not shown), the Inhibition % is recorded as 6.92%. Next, `Cc1nccn1S(=O)(=O)c1cc(Cl)ccc1Cl`: 4.34%; `Cc1cc(C)n(S(=O)(=O)c2cccc(Cl)c2Cl)n1`: 2.67%. Next, `O=C(CCl)Nc1cc(F)ccc1C(=O)O`: 32.7%; `O=C(CCl)c1ccns1`: 95.1%; `O=c1c2ccccc2nc(S)n1CCCOC1CCOC1` (stereo not shown): 6.16%.

On to `C=CC(=O)Nc1ccnn1CC1CCOC1` (stereo not shown), for which the Inhibition % was 6.69%. In the case of `N#Cc1nc(NCCc2csc(=O)[nH]2)ccc1C(F)(F)F`, the Inhibition % was determined as 13.7%. Next, `O=C(CCl)N1N=C(c2ccco2)CC1c1ccco1` (stereo not shown): 9.04%. Then `Clc1ccc(Cl)c(OCC2CO2)c1` (stereo not shown), with 5.37%; and `CNc1nc(S)nc2ccccc12`, with 3.7%; and `O=S(=O)(F)c1cccc(Br)c1`, with 16.4%. Next, `C=CC(=O)Nc1cccc(NC(C)=O)n1`: -0.654%; `C=CC(=O)NC1(C)CCC(C)(C)CC1`: 3.82%; `C=CC(=O)N1CCN(c2cnn(C)c2)C(=O)C1`: 7.82%. As to `CNc1ncc(B2OC(C)(C)C(C)(C)O2)cn1`, the Inhibition % is recorded as 1.74%. Next, `N#Cc1cccc(C2(NC(=O)[C@@H]3CNC(=O)O3)CC2)c1`: 6.29%.

For the molecule `CC1CC(Sc2ccccc2F)C(=O)O1` (stereo not shown), the Inhibition % is on record as -0.183%. Next, `C=CC(=O)N1CC(CN2CCOCC2)C1`: 8.95%; `CC1(C)OB(c2ccc(C#N)c(Cl)c2)OC1(C)C`: 26.1%; `O=C(CCl)c1ccc2[nH]c(=O)oc2c1`: 2.68%. In the case of `O=C(CCl)NC(=O)c1ccco1`, the Inhibition % is given as 22.8%. Regarding `N#CC(C(=O)CCl)=C(c1ccc(F)cc1)N1CCOCC1`, the Inhibition % was found to be 3.9%. Then `CCOc1ccc(S(=O)(=O)n2nc(C)cc2C)cc1C`, with 7.03%; and `CC1CC1c1ccc(C=CC(=O)N2CCNC(=O)C2)o1` (stereo not shown), with -1.45%; and `COCc1ccc(CNC(=O)CCl)cc1`, with 6.87%. For the molecule `COc1ccc(S(=O)(=O)n2nc(C)cc2C)cc1C`, the Inhibition % worked out at 5.55%. Turning to `C=CC(=O)NCC1CCCC(F)C1` (stereo not shown), the Inhibition % came to 4.98%. `CC1CC(Sc2ncnc3ccccc23)C(=O)O1` (stereo not shown): the Inhibition % worked out at 4.79%. Turning to `O=C(CCl)c1ccc2[nH]c(=O)[nH]c2c1`, the Inhibition % came to 63.2%. With `C=CC(=O)N1CCC(c2cccc(Cl)c2)C1` (stereo not shown), the Inhibition % turned out to be 10.2%. As for `C=CC(=O)Nc1ccccc1CN1CCSCC1`, the Inhibition % is listed as 10.9%.
